Results from the supplement of paper PMC2702839.
Structures can show the parent of a compound that is named as a salt. This is one part of the list.

tested on: Schistosoma mansoni schistosomula; experiment: phenotypic hit in primary schistosomula screen (any phenotype vs DMSO control) (binary (1 = hit, 0 = no phenotype)); higher = active (phenotype induced); settings: 1 µM; time (d): 7

Compound | phenotypic hit
C[C@@H]1NC(=O)[C@@H](N)CNC(=O)[C@H](C2CCNC(=N)N2)NC(=O)/C(=C/NC(N)=O)NC(=O)[C@H](CNC(=O)CC(N)CCCN)NC1=O.N=C1NCC[C@H]([C@@H]2NC(=O)/C(=C/NC(N)=O)NC(=O)[C@H](CNC(=O)C[C@@H](N)CCCN)NC(=O)[C@H](CO)NC(=O)[C@@H](N)CNC2=O)N1 [capreomycin sulfate] | inactive: 0
N=c1[nH]c(=O)c2[nH]c(=O)c(=O)[nH]c2[nH]1 [leucopterin] | inactive: 0
CC(=O)Oc1cc(OC(C)=O)c2c(c1)O[C@H](c1ccc(OC(C)=O)c(OC(C)=O)c1)[C@@H](OC(C)=O)C2 [catechin pentaacetate] | inactive: 0
NC(=O)NCC(N)C(=O)O (centres undefined) [albizziine] | inactive: 0
CC(=O)O[C@@H]1CC2C(C)(C)C(=O)[C@@H]3O[C@@H]3[C@]2(C)C2CC[C@]3(C)C(=CC(=O)O[C@H]3c3ccoc3)[C@@]21C (stereo partly drawn) [1 (2)alpha-epoxydeoxydihydrogedunin] | inactive: 0
CC(C)CCC[C@@H](C)[C@H]1CC[C@H]2[C@@H]3CC(=O)[C@H]4C[C@@H](O)CC[C@]4(C)[C@H]3CC[C@]12C [5alpha-cholestan-3beta-ol-6-one] | inactive: 0
C[C@H]1c2cccc(O)c2C(=O)C2=C(O)[C@]3(O)C(=O)C(C(N)=O)=C(O)[C@@H](N(C)C)[C@@H]3[C@@H](O)[C@@H]21 [doxycycline hydrochloride] | inactive: 0
C=CC(C1=CC(=O)C(OC)=CC1=O)c1ccccc1 (centres undefined) [4-methoxydalbergione] | inactive: 0
O=C1c2ccc(O)cc2OC(c2cc(O)c(O)c(O)c2)C1O (stereo in doubt) [dihydrorobinetin] | inactive: 0
C[C@](N)(Cc1ccc(O)c(O)c1)C(=O)O [L-alpha-Methyl DOPA] | inactive: 0
CC[C@H]1C(=O)OC[C@@H]1Cc1cncn1C [isopilocarpine nitrate] | inactive: 0
COc1c(CC(=O)c2cc3c(cc2O)OC(C)(C)C(O)C3)ccc2c1C=CC(C)(C)O2 (centres undefined) [dihydromunduletone] | inactive: 0
O=C(O)c1cn(C2CC2)c2cc(N3CCNCC3)c(F)cc2c1=O [ciprofloxacin] | inactive: 0
Cn1c(=O)[nH]c2ncn(C)c2c1=O [1,7-Dimethylxanthine] | inactive: 0
Cc1cc(C(C)(C)C)c(O)c(C(C)(C)C)c1 [2,6-di-t-butyl-4-methylphenol] | inactive: 0
COc1c(CC=C(C)C)c2c(c3oc(=O)c(-c4ccc(OC(C)=O)cc4)c(OC(C)=O)c13)C=CC(C)(C)O2 [scandenin diacetate] | inactive: 0
COc1cc(C(=O)NCc2ccc(OCCN(C)C)cc2)cc(OC)c1OC [trimethobenzamide hydrochloride] | inactive: 0
O=C(O)C1CC([C@@H]2CCCCN2)CN2CCCCC12 (some centres undefined) [aphyllic acid] | inactive: 0
COc1ccc2c(c1)OC/C(=C/c1ccc(OC)c(OC)c1)C2=O [sappanone a trimethyl ether] | inactive: 0
CC1(C)C=Cc2c(cc3occ(-c4ccc5c(c4)OCO5)c(=O)c3c2O)O1 [robustone] | inactive: 0

Compound | phenotypic hit
C[C@@H]1CC[C@H]2[C@](C)(CO)[C@@H](O)CC[C@]2(C)[C@@]12CC[C@@](CO)(CCO)O2 [lagochilin] | inactive: 0
O=c1cc(CO)occ1O [kojic acid] | inactive: 0
C1CCC(C(CC2CCCCN2)C2CCCCC2)CC1 (centres undefined) [perhexiline maleate] | inactive: 0
CC(C)c1c(O)c(-c2cc3c(c(C(C)C)c2O)CCC2C(C)(C)CCC[C@]32C)cc2c1CCC1C(C)(C)CCC[C@]21C (some centres undefined) [podototarin] | inactive: 0
COC(=O)CCCOc1ccc(Cl)cc1Cl [2,4-dichlorophenoxybutyric acid, methyl ester] | inactive: 0
CCc1nc(N)nc(N)c1-c1ccc(Cl)cc1 [pyrimethamine] | inactive: 0
CC(=O)[C@@]1(O)CC[C@H]2[C@@H]3C[C@H](C)C4=CC(=O)C=C[C@]4(C)[C@@]3(F)[C@@H](O)C[C@@]21C [fluorometholone] | inactive: 0
CC1(C)C(O)CC(=O)C2(C)C1CC(O)C1(C)C2CCC2(C)C(c3ccoc3)OC(=O)C3OC321 (centres undefined) [1-deacetoxy-1-oxo-3,7-dideacetylkhivorin] | inactive: 0
CC1(C)C(=O)C=C[C@@]2(C)C1CC(=O)[C@@]1(C)C3=CC(=O)O[C@@H](c4ccoc4)[C@]3(C)CCC12 (some centres undefined) [7-deacetoxy-7-oxodeoxygedunin] | inactive: 0
CC(C)C1=CC2=CC[C@@H]3[C@](C)(CCC[C@@]3(C)C(=O)O)[C@H]2CC1 [abietic acid] | inactive: 0
C[C@H]1C[C@H]2[C@@H]3CCC4=CC(=O)C=C[C@]4(C)[C@@]3(F)[C@@H](O)C[C@]2(C)[C@@]1(O)C(=O)CO [betamethasone] | inactive: 0
C[C@@H]1C[C@H]2[C@@H]3C[C@H](F)C4=CC(=O)C=C[C@]4(C)[C@@]3(F)[C@@H](O)C[C@]2(C)[C@H]1C(=O)COC(=O)C(C)(C)C [diflucortolone pivalate] | inactive: 0
Cc1ccc(Cl)c(Nc2ccccc2C(=O)O)c1Cl [sodium meclofenamate] | inactive: 0
CC(C(=O)O)c1ccc(N2Cc3ccccc3C2=O)cc1 (centres undefined) [indoprofen] | inactive: 0
CO[C@@]12[C@H](COC(N)=O)C3=C(C(=O)C(C)=C(N)C3=O)N1C[C@@H]1N[C@@H]12 [mitomycin c] | inactive: 0
Cc1cc(/C=C/c2ccc3cc(N(C)C)ccc3[n+]2C)c(C)n1-c1ccccc1 [pyrvinium pamoate] | active: 1
CCn1nc(C(=O)O)c(=O)c2cc3c(cc21)OCO3 [cinoxacin] | inactive: 0
CCOC(=O)CCCCCCCCCCCCC1C=CCC1 (centres undefined) [chaulmoogric acid, ethyl ester] | inactive: 0
C[C@@H]1O[C@@H](O[C@H]2[C@H](O[C@H]3CC[C@@]4(C)[C@@H](CC[C@]5(C)[C@@H]4CC=C4[C@@H]6CC(C)(C)CC[C@]6(C(=O)O[C@@H]6O[C@H](CO[C@@H]7O[C@H](CO)[C@@H](O[C@@H]8O[C@@H](C)[C@H](O)[C@@H](O)[C@H]8O)[C@H](O)[C@H]7O)[C@@H](O)[C@H](O)[C@H]6O)CC[C@]45C)[C@]3(C)CO)OC[C@H](O)[C@@H]2O)[C@H](O)[C@H](O)[C@H]1O [hederacoside c] | inactive: 0
